Laboratory results reported in PubChem BioAssay AID445 (National Center for Advancing Translational Sciences (NCATS), 2006).
Out of some 110,000 compounds screened, about 40 (0.04%) were called active. Inconclusive results, whose numbers are uncertain, are shown with a selection of clear calls. Calls come from the whole dose curve; as a rule, active = well fitted curve in the direction sought with a large enough effect in the signal ratio (not every such curve was filed as active); inconclusive = small, poorly fitted or top-dose-only effect, or a change in a side signal; inactive = flat fitted curve, though single readings scatter; the % refers to the signal ratio. Where the call is inconclusive, the potency comes from a doubtful curve fit.

assay: IkB Signaling; details: ABC-DLBCL IkBa-CBG/CBR dual luciferase ratio (green luciferase fused to IkBa over red control in OCI-Ly3 lymphoma cells), 4 h; IkBa stabilization activation: at 57.1 µM (top of the series), scaled: untreated 0%, proteasome inhibitor 100% unless noted;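 for IkBa stabilization activation: 0% = basal untreated cells and 100% = reference inhibitor full response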
Method in brief: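 Curves were fitted separately to fusion (green), unfused (red) and ratio luminescence, then classed by r2, magnitude and activity. Cells: OCI-Ly3, 4 h compound plus doxycycline at 37C; 10 uM MG-132 defined full response.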
Potency is the fitted concentration of half-maximal effect.

Question: Which IkBa stabilization activation does the source give for `CCOc1ccc(-n2c(CC)nc3c(cnn3-c3ccc(Cl)cc3)c2=O)cc1` here?
Answer: inconclusive: 1.09% [signal inhibitor]

Question: With `O=C(Nc1ccc2nc3n(c(=O)c2c1)CCCCC3)c1ccccn1` as the molecule, how does the IkBa stabilization activation read?
Answer: inactive

Question: With `Cc1oc(-c2cccc(Cl)c2)nc1CN1CCCC(C(=O)N2CCN(c3ccc(F)cc3)CC2)C1` (stereo not drawn) as the molecule, how does the IkBa stabilization activation read?
Answer: inconclusive: -1.25% [signal inhibitor]

Question: For `Cc1cccc(Cn2c(C)c(CNC3CCCCCC3)c(C(=O)O)c2C)c1`, which IkBa stabilization activation is on record?
Answer: inconclusive: 2.01% [signal inhibitor]

Question: With `O=C(Cn1c(=O)c2ccccc2n(CC(=O)Nc2ccc(F)cc2)c1=O)NCCc1ccccc1` as the molecule, how does the Potency read?
Answer: inconclusive: 15.8 µM [signal inhibitor, partial curve]

Question: For `Cc1c(NC(=O)C(C)(C)C)cccc1-c1nc2ccccc2s1`, which IkBa stabilization activation is on record?
Answer: inconclusive: 4.89% [signal inhibitor]

Question: Which IkBa stabilization activation does the source give for `Cn1cc(S(=O)(=O)N2CCc3ccccc32)cc1C(=O)Nc1ccc(C(F)(F)F)cc1` here?
Answer: inconclusive: 2.5% [signal inhibitor]

Question: For `Cn1cccc1Cc1nnc(SCC(=O)Nc2ccc(Cl)cc2)n1-c1ccc(F)cc1`, which IkBa stabilization activation is on record?
Answer: inconclusive: 0.573% [signal inhibitor]

Question: Which IkBa stabilization activation does the source give for `CCc1ccc(NC(=O)CSc2nc3c([nH]c4ccccc43)c(=O)n2C)cc1` here?
Answer: inconclusive: 2.93% [signal inhibitor]

Question: With `Cn1cccc1Cc1nnc(SCC(=O)N2CCc3ccccc32)n1CCc1ccccc1` as the molecule, how does the IkBa stabilization activation read?
Answer: inactive

Question: Which IkBa stabilization activation does the source give for `Fc1cccc(Cl)c1/C=N\N=C1c2ccccc2-c2ccccc21` here?
Answer: inactive: 2.52% [at 11.4 µM, scaled: untreated 0%, proteasome inhibitor 100%]

Question: For `CCOC(=O)c1cc2c(=O)n3ccccc3nc2n(CC2CCCO2)c1=NC(=O)c1ccccc1OCC` (stereo not drawn), which IkBa stabilization activation is on record?
Answer: inconclusive: -0.92% [signal inhibitor]

Question: For `COc1ccccc1OCCCn1c(C2CC(=O)N(c3ccc(F)cc3)C2)nc2ccccc21` (stereo not drawn), which IkBa stabilization activation is on record?
Answer: inconclusive: 0.289% [signal inhibitor]

Question: For `COc1ccc(CCNC(=O)c2c(Nc3ccccc3C)sc(C(=O)c3ccccc3)c2N)cc1OC`, which IkBa stabilization activation is on record?
Answer: inconclusive: 2.34% [signal inhibitor]

Question: Which IkBa stabilization activation does the source give for `CCCCC(CC)CNC(=O)c1ccc(Cn2c(=O)[nH]c3cc(OC)c(OC)cc3c2=O)cc1` (stereo not drawn) here?
Answer: inconclusive: 2.51% [signal inhibitor]

Question: Which Potency does the source give for `COc1ccccc1-c1cc(C(=O)NC(C)C)no1` here?
Answer: inconclusive: 15.8 µM [signal inhibitor, partial curve]

Question: Which IkBa stabilization activation does the source give for `O=C(O)CSc1nnc(CNc2ccc(Cl)cc2)n1Cc1ccccc1` here?
Answer: inactive

Question: For `CCN1c2ccccc2-c2nc(SCC(=O)Nc3cc(OC)cc(OC)c3)ncc2S1(=O)=O`, which IkBa stabilization activation is on record?
Answer: inactive
